Source: PMC8321558
These are yes or no findings as the source states them, for the method shown. Some entries that bind do so weakly or less than the wild type.

The chains behind the UniProt entries cited, without tags or fusion partners.
UniProt P0AG24: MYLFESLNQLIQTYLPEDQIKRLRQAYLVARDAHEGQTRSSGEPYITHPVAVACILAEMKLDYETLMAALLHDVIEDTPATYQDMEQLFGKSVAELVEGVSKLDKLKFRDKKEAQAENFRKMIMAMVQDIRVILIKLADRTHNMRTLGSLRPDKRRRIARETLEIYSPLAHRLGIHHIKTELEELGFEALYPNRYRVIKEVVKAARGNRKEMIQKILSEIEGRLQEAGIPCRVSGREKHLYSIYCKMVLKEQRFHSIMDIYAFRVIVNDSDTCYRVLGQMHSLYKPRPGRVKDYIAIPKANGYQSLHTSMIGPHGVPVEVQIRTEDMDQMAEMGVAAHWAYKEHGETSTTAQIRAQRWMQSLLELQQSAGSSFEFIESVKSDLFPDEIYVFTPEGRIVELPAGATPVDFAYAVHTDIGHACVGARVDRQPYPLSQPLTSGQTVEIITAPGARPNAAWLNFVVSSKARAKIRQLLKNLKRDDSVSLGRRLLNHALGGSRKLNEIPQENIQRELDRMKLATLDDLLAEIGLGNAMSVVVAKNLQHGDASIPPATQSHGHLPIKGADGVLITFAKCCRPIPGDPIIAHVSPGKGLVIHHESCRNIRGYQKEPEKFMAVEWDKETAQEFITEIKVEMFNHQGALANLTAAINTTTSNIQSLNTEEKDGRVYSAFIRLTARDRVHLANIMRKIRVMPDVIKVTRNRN

Experiments:
Experiment in all cases: two-hybrid; bacterial two-hybrid (T18 and T25 domains of B. pertussis adenylate cyclase; pUT18C and pKT25) in cya-deficient E. coli BTH101, 30°C; X-Gal plates and β-galactosidase activity
[1] = biological target: T1, T25-RelA^1-181 (Escherichia coli) (UniProt P0AG20)
T1 sequence: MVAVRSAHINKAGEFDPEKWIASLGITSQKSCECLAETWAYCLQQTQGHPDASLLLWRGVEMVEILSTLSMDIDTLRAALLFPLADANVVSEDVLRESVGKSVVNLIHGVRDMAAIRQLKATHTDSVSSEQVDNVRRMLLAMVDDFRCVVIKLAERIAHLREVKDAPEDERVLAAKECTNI

[2] = biological target: T2, T25-RelA^1-580 (Escherichia coli) (UniProt P0AG20)
T2 sequence: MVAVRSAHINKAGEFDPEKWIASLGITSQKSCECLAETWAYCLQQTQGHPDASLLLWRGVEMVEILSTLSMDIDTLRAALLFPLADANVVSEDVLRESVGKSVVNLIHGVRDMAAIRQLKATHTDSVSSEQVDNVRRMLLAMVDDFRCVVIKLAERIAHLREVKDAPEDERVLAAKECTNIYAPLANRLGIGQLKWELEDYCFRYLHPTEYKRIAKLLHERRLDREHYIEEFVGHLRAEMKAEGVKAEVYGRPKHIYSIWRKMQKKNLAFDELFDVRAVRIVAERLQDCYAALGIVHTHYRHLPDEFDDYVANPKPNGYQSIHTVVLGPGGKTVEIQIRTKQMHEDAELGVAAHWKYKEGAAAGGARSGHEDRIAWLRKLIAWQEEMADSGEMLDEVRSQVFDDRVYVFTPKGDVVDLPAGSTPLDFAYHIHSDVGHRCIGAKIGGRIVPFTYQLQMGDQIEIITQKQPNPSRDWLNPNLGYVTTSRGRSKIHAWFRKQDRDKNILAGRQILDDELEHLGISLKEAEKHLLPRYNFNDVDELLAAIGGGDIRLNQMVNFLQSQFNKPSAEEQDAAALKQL

[3] = biological target: T3, T25-RelA^1-663 (Escherichia coli) (UniProt P0AG20)
T3 sequence: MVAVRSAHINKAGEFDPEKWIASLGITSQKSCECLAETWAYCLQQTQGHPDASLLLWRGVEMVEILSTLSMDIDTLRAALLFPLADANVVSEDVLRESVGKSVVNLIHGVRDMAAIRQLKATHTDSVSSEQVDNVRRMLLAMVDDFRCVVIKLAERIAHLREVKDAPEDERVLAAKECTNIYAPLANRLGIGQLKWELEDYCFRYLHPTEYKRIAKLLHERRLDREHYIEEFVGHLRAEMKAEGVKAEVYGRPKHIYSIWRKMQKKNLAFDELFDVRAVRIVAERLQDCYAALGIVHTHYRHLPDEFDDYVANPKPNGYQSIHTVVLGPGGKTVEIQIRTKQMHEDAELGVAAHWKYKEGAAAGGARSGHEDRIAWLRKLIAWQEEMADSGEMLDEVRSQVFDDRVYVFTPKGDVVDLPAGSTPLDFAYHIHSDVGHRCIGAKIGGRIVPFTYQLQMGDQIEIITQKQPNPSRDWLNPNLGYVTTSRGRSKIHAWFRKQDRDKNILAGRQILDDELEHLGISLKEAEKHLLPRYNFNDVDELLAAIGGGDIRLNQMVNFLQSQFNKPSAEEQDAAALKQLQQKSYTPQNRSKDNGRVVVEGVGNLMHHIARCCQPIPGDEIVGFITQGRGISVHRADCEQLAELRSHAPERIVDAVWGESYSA

[4] = biological target: T4, T25-RelA^181-744 (Escherichia coli) (UniProt P0AG20)
T4 sequence: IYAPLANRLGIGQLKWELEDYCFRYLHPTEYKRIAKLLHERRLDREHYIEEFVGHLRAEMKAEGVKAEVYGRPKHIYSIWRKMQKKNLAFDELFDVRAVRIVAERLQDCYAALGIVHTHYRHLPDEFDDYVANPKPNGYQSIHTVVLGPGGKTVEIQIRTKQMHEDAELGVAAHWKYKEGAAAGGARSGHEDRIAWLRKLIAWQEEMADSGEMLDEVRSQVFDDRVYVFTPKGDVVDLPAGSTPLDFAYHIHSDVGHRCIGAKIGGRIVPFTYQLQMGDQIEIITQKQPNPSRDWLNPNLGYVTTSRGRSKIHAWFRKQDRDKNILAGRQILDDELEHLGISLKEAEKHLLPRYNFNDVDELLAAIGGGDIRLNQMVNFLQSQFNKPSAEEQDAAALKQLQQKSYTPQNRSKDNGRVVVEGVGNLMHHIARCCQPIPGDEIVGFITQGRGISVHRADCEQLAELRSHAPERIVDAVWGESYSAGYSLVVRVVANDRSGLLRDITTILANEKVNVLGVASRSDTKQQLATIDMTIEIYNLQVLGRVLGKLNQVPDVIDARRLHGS

[5] = biological target: T5, T25-RelA^1-470 (Escherichia coli) (UniProt P0AG20)
T5 sequence: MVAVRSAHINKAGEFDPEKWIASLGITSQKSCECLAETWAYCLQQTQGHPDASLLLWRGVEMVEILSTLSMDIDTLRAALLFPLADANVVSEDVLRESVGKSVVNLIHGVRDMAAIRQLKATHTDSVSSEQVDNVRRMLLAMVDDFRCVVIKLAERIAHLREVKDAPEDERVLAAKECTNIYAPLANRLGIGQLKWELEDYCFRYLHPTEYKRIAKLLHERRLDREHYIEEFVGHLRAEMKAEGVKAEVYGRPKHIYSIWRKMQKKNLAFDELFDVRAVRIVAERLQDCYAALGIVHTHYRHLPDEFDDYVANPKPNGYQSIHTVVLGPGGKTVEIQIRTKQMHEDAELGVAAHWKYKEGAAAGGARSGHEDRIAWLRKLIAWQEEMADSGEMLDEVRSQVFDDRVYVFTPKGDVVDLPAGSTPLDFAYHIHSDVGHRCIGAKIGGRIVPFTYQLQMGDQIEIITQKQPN

[6] = biological target: T6, T25-NirB (Escherichia coli) (UniProt P08201)
T6 sequence: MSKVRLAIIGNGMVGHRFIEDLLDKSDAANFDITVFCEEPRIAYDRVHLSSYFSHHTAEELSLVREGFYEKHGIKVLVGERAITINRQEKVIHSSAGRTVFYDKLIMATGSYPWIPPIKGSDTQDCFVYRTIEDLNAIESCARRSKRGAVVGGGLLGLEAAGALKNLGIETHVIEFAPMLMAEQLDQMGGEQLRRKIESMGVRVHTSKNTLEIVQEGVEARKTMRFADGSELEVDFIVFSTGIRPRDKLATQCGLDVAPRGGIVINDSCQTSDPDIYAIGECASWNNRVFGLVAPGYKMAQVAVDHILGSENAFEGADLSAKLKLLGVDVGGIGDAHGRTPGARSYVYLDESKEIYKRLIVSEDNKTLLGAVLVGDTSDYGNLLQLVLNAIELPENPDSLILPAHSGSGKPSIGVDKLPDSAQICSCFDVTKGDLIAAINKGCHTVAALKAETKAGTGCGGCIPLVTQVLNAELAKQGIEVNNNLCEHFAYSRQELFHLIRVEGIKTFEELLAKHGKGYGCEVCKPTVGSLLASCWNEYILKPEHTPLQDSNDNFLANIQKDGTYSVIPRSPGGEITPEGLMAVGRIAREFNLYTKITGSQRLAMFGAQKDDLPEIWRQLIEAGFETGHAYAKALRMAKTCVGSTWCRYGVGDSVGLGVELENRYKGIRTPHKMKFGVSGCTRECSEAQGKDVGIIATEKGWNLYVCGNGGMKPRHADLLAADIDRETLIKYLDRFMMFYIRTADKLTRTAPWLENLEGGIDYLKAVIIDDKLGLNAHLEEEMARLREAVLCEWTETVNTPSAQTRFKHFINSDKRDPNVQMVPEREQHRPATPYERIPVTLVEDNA

[7] = biological target: T25-SpoT (Escherichia coli) (UniProt P0AG24)

| Binder | binding [1] | binding [2] | binding [3] | binding [4] | binding [5] | binding [6] | binding [7] |
| --- | --- | --- | --- | --- | --- | --- | --- |
| T18-NirD (protein, UniProt P0A9I8 1-108) MSQWKDICKIDDILPETGVCALLGDEQVAIFRPYHSDQVFAISNIDPFFESSVLSRGLIAEHQGELWVASPLKKQRFRLSDGLCMEDEQFSVKHYEARVKDGVVQLRG | no binding | binds | binds | no binding | binds | binds | no binding |
| T18-NirD^E50K (protein, UniProt P0A9I8 1-108) MSQWKDICKIDDILPETGVCALLGDEQVAIFRPYHSDQVFAISNIDPFFKSSVLSRGLIAEHQGELWVASPLKKQRFRLSDGLCMEDEQFSVKHYEARVKDGVVQLRG | – | – | – | – | – | binds | – |
